Measured values reported in PMC7049725.
These are yes or no findings as the source states them, for the method shown. Binding seen in cells or lysates may run through a third protein. Some binding calls cover weakened binding; strength is not graded here. Tags and fused reporters may be left off the sequences shown. One block for each molecule: values may come before it.

Chains of the proteins cited; added tags and fusions are not shown.
UniProt O60293: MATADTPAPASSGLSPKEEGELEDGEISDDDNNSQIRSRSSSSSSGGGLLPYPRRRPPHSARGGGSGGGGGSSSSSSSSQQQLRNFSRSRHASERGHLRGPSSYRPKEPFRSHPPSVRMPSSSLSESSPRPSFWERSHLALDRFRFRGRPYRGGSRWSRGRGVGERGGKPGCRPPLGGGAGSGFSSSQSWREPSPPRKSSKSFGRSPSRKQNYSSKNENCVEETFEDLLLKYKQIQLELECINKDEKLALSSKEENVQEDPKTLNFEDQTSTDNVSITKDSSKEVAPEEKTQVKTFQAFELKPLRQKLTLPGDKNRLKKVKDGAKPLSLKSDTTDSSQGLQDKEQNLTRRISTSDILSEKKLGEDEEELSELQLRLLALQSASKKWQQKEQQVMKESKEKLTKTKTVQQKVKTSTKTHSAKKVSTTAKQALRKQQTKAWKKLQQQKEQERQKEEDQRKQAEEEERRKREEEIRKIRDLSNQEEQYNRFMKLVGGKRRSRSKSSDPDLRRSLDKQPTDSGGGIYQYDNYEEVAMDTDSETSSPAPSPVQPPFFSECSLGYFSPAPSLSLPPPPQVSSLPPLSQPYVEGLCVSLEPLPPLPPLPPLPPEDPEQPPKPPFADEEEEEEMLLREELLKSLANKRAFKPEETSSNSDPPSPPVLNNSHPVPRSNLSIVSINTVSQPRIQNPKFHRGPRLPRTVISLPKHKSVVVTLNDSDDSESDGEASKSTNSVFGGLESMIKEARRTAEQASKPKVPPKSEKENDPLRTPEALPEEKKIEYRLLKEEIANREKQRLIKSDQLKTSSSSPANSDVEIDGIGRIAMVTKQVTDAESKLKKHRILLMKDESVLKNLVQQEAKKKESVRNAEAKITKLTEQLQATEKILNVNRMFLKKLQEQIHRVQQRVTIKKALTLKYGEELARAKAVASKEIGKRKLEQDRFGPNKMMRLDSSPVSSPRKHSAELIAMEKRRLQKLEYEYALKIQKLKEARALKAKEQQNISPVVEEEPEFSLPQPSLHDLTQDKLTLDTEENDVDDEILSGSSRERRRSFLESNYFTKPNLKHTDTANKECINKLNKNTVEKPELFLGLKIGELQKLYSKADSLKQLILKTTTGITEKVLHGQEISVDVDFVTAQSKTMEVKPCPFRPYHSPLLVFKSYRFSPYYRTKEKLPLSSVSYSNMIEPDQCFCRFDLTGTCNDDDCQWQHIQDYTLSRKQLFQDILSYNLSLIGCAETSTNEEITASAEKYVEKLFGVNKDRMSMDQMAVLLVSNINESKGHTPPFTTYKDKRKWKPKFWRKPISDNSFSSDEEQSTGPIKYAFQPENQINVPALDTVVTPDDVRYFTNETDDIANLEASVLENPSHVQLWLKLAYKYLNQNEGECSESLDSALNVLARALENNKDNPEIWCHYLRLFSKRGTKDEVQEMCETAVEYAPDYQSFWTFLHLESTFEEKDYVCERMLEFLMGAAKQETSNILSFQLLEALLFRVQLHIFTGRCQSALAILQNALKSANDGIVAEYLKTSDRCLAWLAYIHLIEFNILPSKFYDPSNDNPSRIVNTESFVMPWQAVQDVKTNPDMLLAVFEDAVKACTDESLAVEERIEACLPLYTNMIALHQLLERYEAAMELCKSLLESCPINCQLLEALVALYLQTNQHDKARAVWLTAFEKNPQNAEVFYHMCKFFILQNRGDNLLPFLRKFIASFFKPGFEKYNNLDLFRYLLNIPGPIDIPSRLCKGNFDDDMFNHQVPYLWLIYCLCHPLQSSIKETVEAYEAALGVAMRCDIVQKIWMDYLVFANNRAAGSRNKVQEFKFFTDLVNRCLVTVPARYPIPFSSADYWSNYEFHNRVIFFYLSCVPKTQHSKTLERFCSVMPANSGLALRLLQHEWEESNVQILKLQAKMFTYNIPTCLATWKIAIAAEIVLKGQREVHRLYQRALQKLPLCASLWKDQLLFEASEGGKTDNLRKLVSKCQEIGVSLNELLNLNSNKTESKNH

Tests used:
ZC3H3-3xFLAG (human) [1] = molecular target: T1, ZC3H3-3xFLAG (human) (UniProt Q8IXZ2); experiment: co-IP; anti-FLAG (M2) magnetic beads, HEK293 lysate (150 mM NaCl, 50 mM Tris-HCl pH 7.5, 5% glycerol, 1% IGEPAL-CA-630, 1 mM MgCl2); bead-bound material treated with BSA (1 mg/ml, control) for 20 min at room temperature before elution; western blot
T1 sequence: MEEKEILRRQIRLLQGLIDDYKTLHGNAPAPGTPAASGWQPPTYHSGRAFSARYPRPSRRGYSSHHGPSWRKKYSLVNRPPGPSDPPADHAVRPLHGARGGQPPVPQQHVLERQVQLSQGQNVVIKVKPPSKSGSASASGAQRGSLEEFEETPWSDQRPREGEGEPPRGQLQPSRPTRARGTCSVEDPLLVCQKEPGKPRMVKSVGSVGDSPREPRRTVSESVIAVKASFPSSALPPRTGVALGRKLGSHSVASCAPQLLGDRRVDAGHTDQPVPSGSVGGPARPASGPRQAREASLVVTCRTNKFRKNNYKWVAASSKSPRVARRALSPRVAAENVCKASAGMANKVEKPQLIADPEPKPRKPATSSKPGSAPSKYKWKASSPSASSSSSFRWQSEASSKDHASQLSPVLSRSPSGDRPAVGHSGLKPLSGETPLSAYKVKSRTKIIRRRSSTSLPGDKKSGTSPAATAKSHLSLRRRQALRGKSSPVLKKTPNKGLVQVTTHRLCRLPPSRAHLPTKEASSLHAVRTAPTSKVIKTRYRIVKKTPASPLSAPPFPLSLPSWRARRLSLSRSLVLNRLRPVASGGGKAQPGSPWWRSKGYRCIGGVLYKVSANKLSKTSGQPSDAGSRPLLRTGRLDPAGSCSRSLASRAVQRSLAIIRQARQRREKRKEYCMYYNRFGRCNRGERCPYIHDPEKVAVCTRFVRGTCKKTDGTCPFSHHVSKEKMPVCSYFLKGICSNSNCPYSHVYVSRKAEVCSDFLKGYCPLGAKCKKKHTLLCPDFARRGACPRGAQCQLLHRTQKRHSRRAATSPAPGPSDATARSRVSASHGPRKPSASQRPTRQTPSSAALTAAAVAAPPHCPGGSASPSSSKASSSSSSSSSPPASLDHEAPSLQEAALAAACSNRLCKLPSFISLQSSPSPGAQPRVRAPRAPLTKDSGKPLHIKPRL

ZC3H3-3xFLAG (human) [2] = molecular target: T1, ZC3H3-3xFLAG (human); experiment: co-IP; as a1, but bead-bound material treated with 250 U Benzonase for 20 min at room temperature before elution; western blot
ZC3H3-3xFLAG (human) [3] = molecular target: T1, ZC3H3-3xFLAG (human); experiment: co-IP; as a1, but bead-bound material treated with 5 U RNase T1 and 2 ug RNase A mix for 20 min at room temperature before elution; western blot
ZC3H3-3xFLAG (human) [4] = molecular target: T1, ZC3H3-3xFLAG (human); experiment: condition: only after treatment of the bead-bound material with Benzonase (250 U); co-IP; as a1, but bead-bound material treated with 250 U Benzonase for 20 min at room temperature before elution; western blot

binding (ZC3H3-3xFLAG (human) [1]): binds
binding (ZC3H3-3xFLAG (human) [2]): binds
binding (ZC3H3-3xFLAG (human) [3]): binds
Molecule: ZFC3H1 (from UniProt O60293 1-1989)

binding (ZC3H3-3xFLAG (human) [1]): no binding
B1: ZCCHC8 (protein, UniProt Q6NZY4 1-707)
chain: MAAEVYFGDLELFEPFDHPEESIPKPVHTRFKDDDGDEEDENGVGDAELRERLRQCEETIEQLRAENQELKRKLNILTRPSGILVNDTKLDGPILQILFMNNAISKQYHQEIEEFVSNLVKRFEEQQKNDVEKTSFNLLPQPSSIVLEEDHKVEESCAIKNNKEAFSVVGSVLYFTNFCLDKLGQPLLNENPQLSEGWEIPKYHQVFSHIVSLEGQEIQVKAKRPKPHCFNCGSEEHQMKDCPMPRNAARISEKRKEYMDACGEANNQNFQQRYHAEEVEERFGRFKPGVISEELQDALGVTDKSLPPFIYRMRQLGYPPGWLKEAELENSGLALYDGKDGTDGETEVGEIQQNKSVTYDLSKLVNYPGFNISTPRGIPDEWRIFGSIPMQACQQKDVFANYLTSNFQAPGVKSGNKRSSSHSSPGSPKKQKNESNSAGSPADMELDSDMEVPHGSQSSESFQFQPPLPPDTPPLPRGTPPPVFTPPLPKGTPPLTPSDSPQTRTASGAVDEDALTLEELEEQQRRIWAALEQAESVNSDSDVPVDTPLTGNSVASSPCPNELDLPVPEGKTSEKQTLDEPEVPEIFTKKSEAGHASSPDSEVTSLCQKEKAELAPVNTEGALLDNGSVVPNCDISNGGSQKLFPADTSPSTATKIHSPIPDMSKFATGITPFEFENMAESTGMYLRIRSLLKNSPRNQQKNKKASE

binding (ZC3H3-3xFLAG (human) [1]): no binding
B2: RBM7 (protein, UniProt Q9Y580 1-266)
chain: MGAAAAEADRTLFVGNLETKVTEELLFELFHQAGPVIKVKIPKDKDGKPKQFAFVNFKHEVSVPYAMNLLNGIKLYGRPIKIQFRSGSSHAPQDVSLSYPQHHVGNSSPTSTSPSRYERTMDNMTSSAQIIQRSFSSPENFQRQAVMNSALRQMSYGGKFGSSPLDQSGFSPSVQSHSHSFNQSSSSQWRQGTPSSQRKVRMNSYPYLADRHYSREQRYTDHGSDHHYRGKRDDFFYEDRNHDDWSHDYDNRRDSSRDGKWRSSRH

binding (ZC3H3-3xFLAG (human) [1]): binds
binding (ZC3H3-3xFLAG (human) [4]): no binding
binding (ZC3H3-3xFLAG (human) [3]): binds
B3: PABPN1 (protein, UniProt Q86U42 1-306)
chain: MAAAAAAAAAAGAAGGRGSGPGRRRHLVPGAGGEAGEGAPGGAGDYGNGLESEELEPEELLLEPEPEPEPEEEPPRPRAPPGAPGPGPGSGAPGSQEEEEEPGLVEGDPGDGAIEDPELEAIKARVREMEEEAEKLKELQNEVEKQMNMSPPPGNAGPVIMSIEEKMEADARSIYVGNVDYGATAEELEAHFHGCGSVNRVTILCDKFSGHPKGFAYIEFSDKESVRTSLALDESLFRGRQIKVIPKRTNRPGISTTDRGFPRARYRARTTNYNSSRSRFYSGFNSRPRGRVYRGRARATSWYSPY
